Consider 167 variants from the RNAGym collection of RNA variant scans (doi:10.7554/elife.90254).

Read counts are not given, so values of variants with three or more changes are uncertain.

B1: OR4K15 (parent)
chain: GUUAACGGUCAUAGGCCAUGGAAACUAGGAGCACCAUUUCGCUGCCAGUGAAGAAAUGAACAAAGAAAAUCUGGGCCAGGCAGGCAUCAAAAGAAAUAGUCUUGCGCUCAACCAGAAAGUCUGUAAUCAUUUUAAGGGUA

Variants of B1 are the subject of the data set. Nature of the data set: self-cleavage, relative activity (ratio to wild type); higher = more cleavage; in vitro, sequencing; the parent is a self-cleaving ribozyme.
Consider U19C U39A A62G G74A A89G A117G U122C, for which the self-cleavage is 0.06. U19C U70C U108C A111G: the self-cleavage worked out at 0.01. For G20A A23G G79U U87C A95U, the self-cleavage is 0.13. As for U19C A22U A27G A55G U100C U122C, the self-cleavage stood at 1.48. On to U19A U43A A47G A118G, for which the self-cleavage was determined as 0.42. Turning to U19A U87A A89G A94G, the self-cleavage turned out to be 0.34. U19C A23G C25G A55C A90G A110G A116G U139C: the self-cleavage came to 0.01. With U19C A23G U43C A52G A55G A63G U132G, the self-cleavage worked out at 1.28. With U19A A67U U108C U124C, the self-cleavage amounted to 0. U19C U39C G50A U72C A111G: the self-cleavage came out at 0. A18U A117U A125G: the self-cleavage turned out to be 0.84.

For the variant U19C A60G A95G, the self-cleavage came to 1.44. As for G20A A60G A89G A117G, the figure is 1.94; as for U19C A86G U131C, 0.88; as for U19A A30U C32U, 1.25. For the variant U19A C32A A36U U103C U131C, the self-cleavage was 0.14. Then U19A A64U U120C U122C U132C, with 0.32; and U19C A111G G115U A129G, with 0; and A18U U37C U131C, with 0.91.

For the variant A18U U39A A54G A66G U108C, the self-cleavage was 0.01. Then G21U A95G A114U, with 0.13. A18U U39C A54G A66G A110G: the self-cleavage is 0.12.

As to U19C G20A A51G A78C A111G, the self-cleavage came out at 0.04. With G20U A47G A54G A92G, the self-cleavage is 1.3.

For the variant U19A A92G A114U U122A, the self-cleavage turned out to be 0.02. With U19C U37C U72A, the self-cleavage was 0.12. As to U19C A51G G74A C113U, the self-cleavage came to 0.05. In the case of U19C A60G A66G A90G U120A U132C, the self-cleavage worked out at 0.3.

For the variant U19C A90G A92G U127A, the self-cleavage was found to be 1.21. On to U19G U49C A56G A89G U122C A129U, for which the self-cleavage was found to be 1.28. Regarding A18U A64G A91G U108C, the self-cleavage was found to be 0.02. Then U19C U87C U108A A117G, with 0; and A18U A92G U130C U132C, with 1.05. Then U19C A59U A92G, with 2.03; and U19C U87A A95G, with 2.17; and U19A A52G A69G, with 0.54. Take U19C U38C U39C A78G U102C: the self-cleavage is 0.48. As for U19C U49A A92G A135G, the figure is 0.37; as for U19A A90G A118G U122C, 0.35. A18U G48A A60G A96G: the self-cleavage came to 1.45. Regarding U19C A56G A117G, the self-cleavage was determined as 0.21.

Consider U19C G93A A114G, for which the self-cleavage was 0.55. As for U19C A54G A94G, the figure is 1.03; as for U19A A24G A86G, 0.52. As to U19C U103C U124C, the self-cleavage was determined as 0.42. With G20A A33G A55G, the self-cleavage was found to be 0.72. Consider U19C A23G G58U, for which the self-cleavage turned out to be 1.02. As for U19A U49C A59G, the figure is 1.28; as for A18U A60G U103C, 0.2; as for U19A U49C A68G A86U U120C, 0.56. As to U19A U37C A63U, the self-cleavage came out at 1.42. On to U19G A118G U124A, for which the self-cleavage came out at 0.89. For U19A A30U A33G U87C, the self-cleavage came out at 0.24. In the case of G20A A86G U133C, the self-cleavage stood at 1.31. Take U19C A30G A66U U131C: the self-cleavage worked out at 1.44.

For the variant U19C A30G U37C U49A A59G U103C A134U, the self-cleavage was found to be 0.42. For the variant G21A A24G A51G, the self-cleavage was 0.95. With A18U A91G A134G, the self-cleavage worked out at 1.27. Then U19A A33U A54G G74A, with 0.15. Take U19A A52G U102C U130C A140G: the self-cleavage stood at 1.9.

Consider G21A A86G U122C, for which the self-cleavage was 0.1. On to U19C A24C A117G, for which the self-cleavage worked out at 0.65. Then U19C U70A A110C G137A, with 0.29; and U19C A30G A67G A90G, with 0.73; and U19A U38A G58U A63G, with 1.65. Then U19C A51U U70A A82G A111G U120C, with 0.02. For U19A A22U A47C A66G A82U, the self-cleavage was determined as 0.24. Then U19A U108C A116G A118G, with 0.01. Regarding U19C U43C A82U, the self-cleavage came to 0.33. Turning to U19C A51C G75A A94G A110G, the self-cleavage is 0.02. Turning to U19C C40A A55G, the self-cleavage turned out to be 1.14.

In the case of U19C A55G A90G, the self-cleavage was 1.22. As for U19C A66G A94G, the self-cleavage amounted to 1.9. For U19C G20A A64G A140U, the self-cleavage was found to be 0.89. As for A18U A86G U87C U108G, the self-cleavage is 0.01. As for U19A C35U U39C, the self-cleavage was 0.15. Turning to A18U A116G A118G, the self-cleavage amounted to 0.66. Then U19A A68G A96U, with 1.42; and G21A A23G A52G, with 0.62.

For U19A A64G G74U U127G, the self-cleavage came to 0.17. With U19C A52U G58U A82U A116G, the self-cleavage stood at 0.07. Turning to U19C U49C U102C, the self-cleavage came to 2.26.

As to G20U A90G A98G, the self-cleavage was 0.16. Regarding U19A U102C A125G, the self-cleavage is 0.99. In the case of U19C A36C A66G U132C, the self-cleavage was 2.07.

For U19C A24G A47G A54G, the self-cleavage stood at 0.66. Turning to U19A G73A U108C, the self-cleavage was 0.01. For U19A G41A U49C, the self-cleavage came out at 1.12.

On to G20A A36G A118U, for which the self-cleavage came out at 1.15. Take U19C U102C A116U: the self-cleavage worked out at 0.56. Then U19C A22G A67G G74A, with 0.13; and U19A G53U A89G, with 1.51. In the case of U19C A30G A47U A92G A96C, the self-cleavage turned out to be 0.21. As to U19C U37A A86U A89G A126G, the self-cleavage came out at 1.16.

As to U19A A36G A67G U70C U131C, the self-cleavage turned out to be 0.4. As for A18U A67G U122C, the figure is 1.55; as for U19A A24G A55G, 1.81. For U19A A91G A96G, the self-cleavage is 1.2. Regarding U19C A24U U37C A56G U102C U122C U130C, the self-cleavage stood at 0.93. With G21A A59G A82G A94G U131C, the self-cleavage was 0.54. For U19C A33G U57C A67U A82G, the self-cleavage came to 0.42. As to U19C A59G U139C, the self-cleavage turned out to be 0.73. Take U19A A114U A117G: the self-cleavage was 0.04. As for U19C G83A A86U A117G, the figure is 2.85; as for U19C A68G A110G, 0.22. As to U19C A51G U70C, the self-cleavage was 0.76. Turning to U19A A33G A68G A94G A135U, the self-cleavage was 0.06. In the case of G21A A51U A111G, the self-cleavage was 0. In the case of U19C A52G U132C, the self-cleavage was 1.37. Regarding U19C A54G U87C A95G U100C U131C, the self-cleavage was 1.03. For U19C A55G A56U U132C, the self-cleavage amounted to 0.92. As for G21A A22G U43C G115U, the self-cleavage amounted to 0.24. For A18U A62G A82G A117G, the self-cleavage amounted to 0.19.

As to A18U A69G A94U, the self-cleavage came to 1.13.

With U19C A36U A52G A67U, the self-cleavage worked out at 0.89. As to U19A A69G A91G, the self-cleavage amounted to 0.65. For the variant U19C U39C U102C, the self-cleavage is 0.77. Take U19C U39A C46U A51G A82U U131C: the self-cleavage amounted to 0.22. As to U19C A30U G104A U108A A110G, the self-cleavage was 0.01. For U19C A22G A27G A63G A98G U100C A111U, the self-cleavage turned out to be 0.36. Take G20A G115U A118G: the self-cleavage is 0.02. Regarding G20A G99A U120C U131C, the self-cleavage turned out to be 0.08. Then A18U A64G U122C U131C, with 1.25.

With U19C U43A U57G A116G U127C, the self-cleavage was 0.37. On to U19A U43C A68C A116G, for which the self-cleavage was 0.42. Take U19A U49C A62G: the self-cleavage stood at 1.15. Turning to U19C A82U A86G U108C A114U U133C, the self-cleavage worked out at 0.01. As for A18U U37C A55G A68G U108C U124A, the figure is 0.02; as for U19C A110U A111G, 0.01. Consider U19C U39C U49C A95G, for which the self-cleavage came out at 1.61.

Regarding U19A A86G A96G, the self-cleavage was determined as 0.42. As for A18U C42G A96G, the figure is 1.75. For A22G A23G A54G A78U, the self-cleavage came to 0.32. A18U U37C A125G: the self-cleavage came out at 0.79. As for G21A U38C A59G A63G A94G, the self-cleavage amounted to 1.56. Then U19C A22G A33U U102C A114U, with 0.02; and A18U A66G U100A, with 0.48; and U19C A51U A67G A90G, with 0.38. As for A18U G31A A33C U38C A82G, the figure is 0.45; as for G20A A30G U37C, 1.22. For U19C U87C A96G, the self-cleavage came to 1.75. As to A18U U108C U133C, the self-cleavage came out at 0.

With G20A A116U A125G, the self-cleavage is 0.03. As for U19C A22G A30G U122A A129C, the figure is 0.9; as for U19A A96G G106A A110U, 0. As for U19C A94G A114G, the self-cleavage was determined as 0.24. For U19C A24U U102C A118G, the self-cleavage was 1.34. For the variant A18U U39C A91C, the self-cleavage was 1. Take G21U A22G A30G A33G A66G U133C: the self-cleavage is 0.63.

Consider U19C U26A U43A C71U U108C U132C, for which the self-cleavage was found to be 0.02. Turning to U19C A36U A55G A64G A68G A90G U127A, the self-cleavage amounted to 1.15. Regarding U19A G79A C105G, the self-cleavage came to 0.01. On to U19C A89U A92G U100C A117G U120C, for which the self-cleavage was determined as 0.6.

U19C A22G U38C U100C: the self-cleavage was 1.32. On to U19A C35G A67U, for which the self-cleavage turned out to be 2.42. U19C A27G A96G A118G: the self-cleavage amounted to 1.02. Turning to A18U U43C A47G U103C, the self-cleavage was 0.44. Consider U19C A59G A134U, for which the self-cleavage was found to be 1.81.

For U19C A55G G58U A59U U122C U130C, the self-cleavage was determined as 0.58. As to U19G A86U A114U, the self-cleavage stood at 0.07. As for U19C U102C A110G, the figure is 0.25. With U19A A30U A60G A91G C113U, the self-cleavage turned out to be 0.07. For the variant A18U A60G U108C, the self-cleavage worked out at 0.01.

G21A A24G A56G A64G A98G U127C: the self-cleavage is 0.13. With U19A U102A U103A, the self-cleavage was determined as 0.04.

In the case of A22G A23G G44A A69G U122G, the self-cleavage came to 1.94.

In the case of U19C U120A U130C, the self-cleavage was determined as 0.52.
